# In PMC4336329 (PLoS ONE, 2015):
# In all, about 310,000 compounds went through this assay and about 14,000 (4.5%) showed an effect of 50% or more. Effects have a minus sign here. The list shows a part of the results.
# Molecular target: human ether-à-go-go-related gene (hERG) potassium channel (human, UniProt Q12809)
# Assay: primary screen, population patch clamp on CHO cells stably expressing hERG
# 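Note: peak tail current of the secondary pulse compared with the same well before compound.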
# Chain of human ether-à-go-go-related gene (hERG) potassium channel (Q12809 whole entry, looked up): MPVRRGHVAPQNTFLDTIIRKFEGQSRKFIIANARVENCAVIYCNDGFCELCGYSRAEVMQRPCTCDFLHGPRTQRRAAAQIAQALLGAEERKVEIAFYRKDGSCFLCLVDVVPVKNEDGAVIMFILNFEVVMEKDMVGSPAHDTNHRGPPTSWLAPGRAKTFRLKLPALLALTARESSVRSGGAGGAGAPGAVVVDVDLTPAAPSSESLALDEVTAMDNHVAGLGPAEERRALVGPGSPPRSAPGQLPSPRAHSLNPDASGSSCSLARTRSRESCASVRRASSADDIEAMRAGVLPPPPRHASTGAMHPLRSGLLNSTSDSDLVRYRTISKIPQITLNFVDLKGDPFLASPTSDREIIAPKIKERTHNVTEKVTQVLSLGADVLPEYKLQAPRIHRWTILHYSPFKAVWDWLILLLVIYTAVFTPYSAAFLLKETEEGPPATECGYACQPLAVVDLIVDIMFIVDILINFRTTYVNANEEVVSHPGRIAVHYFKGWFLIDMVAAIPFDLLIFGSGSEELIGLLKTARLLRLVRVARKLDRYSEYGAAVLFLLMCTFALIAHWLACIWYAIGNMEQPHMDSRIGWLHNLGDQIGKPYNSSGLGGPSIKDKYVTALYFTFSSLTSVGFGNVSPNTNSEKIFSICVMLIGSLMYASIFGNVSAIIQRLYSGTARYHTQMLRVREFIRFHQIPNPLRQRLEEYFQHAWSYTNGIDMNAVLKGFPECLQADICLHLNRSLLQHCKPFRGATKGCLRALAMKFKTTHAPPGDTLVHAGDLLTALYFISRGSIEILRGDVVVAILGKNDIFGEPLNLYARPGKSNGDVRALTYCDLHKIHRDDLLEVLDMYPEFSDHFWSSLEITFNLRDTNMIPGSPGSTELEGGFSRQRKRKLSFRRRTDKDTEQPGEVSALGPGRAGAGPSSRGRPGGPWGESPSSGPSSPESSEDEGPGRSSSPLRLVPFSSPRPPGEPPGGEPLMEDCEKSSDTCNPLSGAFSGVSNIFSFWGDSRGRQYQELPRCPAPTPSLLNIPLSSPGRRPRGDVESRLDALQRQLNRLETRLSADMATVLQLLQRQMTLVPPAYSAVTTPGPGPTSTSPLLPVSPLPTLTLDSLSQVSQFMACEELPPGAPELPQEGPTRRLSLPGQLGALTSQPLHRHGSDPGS
row,Compound,"hERG current change (%, negative = inhibition) at 10uM [%]"
1,Cc1ccc(C)c(NC(=O)c2cnccn2)c1,14.7
2,COc1ccc(N2C(=O)NC(=O)C2=O)cc1,8.45
3,CC1(C)CC(=O)C(C=NCCCN2CCCC2=O)=C(O)C1,7.94
4,COc1cc(C(=O)NCc2nnc(SCC(=O)Nc3nc4ccc(C)cc4s3)o2)cc(OC)c1OC,19.5
5,CC1(C(=O)NC2CCCCCCC2)CC1(Cl)Cl (stereo not shown),-3.53
6,CCN(C(=O)COC(=O)c1cccs1)c1c(N)n(Cc2ccccc2)c(=O)[nH]c1=O,18.3
7,O=C(Nc1ccc(Cl)cc1)Nc1ccccn1,8.38
8,CCCN1CCC(NC(=O)Nc2ccc(Br)cc2)CC1,19.7
9,O=C(NCc1ccncc1)C(=O)NCC(c1ccccc1)c1ccccc1,-28.8
10,CCCCCOc1ccc(C(=O)N(Cc2ccco2)C2CCS(=O)(=O)C2)cc1 (stereo not shown),-22.7
11,COc1cccc(COC(=O)c2ccc(S(=O)(=O)N3CCC(C)CC3)cc2)c1OC,4.23
12,COc1ccc(C(CC(=O)c2ccccc2)CC(=O)c2ccccc2)cc1,5.77
13,Cc1cccc(NC(=O)COC(=O)CCCC2=NS(=O)(=O)c3ccccc3N2)c1,10.7
14,Brc1ccc(-c2noc3c2-c2nc(-c4ccccc4)sc2CC3)cc1,8.09
15,CCC(CC)NCc1ccc2c(c1)c1ccccc1n2CC.O=C(O)C(=O)O,-28.5
16,COC(OC)c1ccc(C#N)c(=O)[nH]1,30.7
17,COCCCNC(=S)Nc1ccc(S(=O)(=O)Nc2cc(OC)nc(OC)n2)cc1,-30.9
18,Cc1ccc(Nc2nc(CSc3nnc(-c4ccccc4C)n3C)cs2)cc1,-31.3
19,CCCCCn1c(=O)c(C(=O)OCC)c(Cl)c2ccccc21,-73.8
20,N[C@@H](Cc1ccc(O)c(I)c1)C(=O)O,17.6
21,CCCCNC(=O)C1Cc2cc(S(=O)(=O)N3CCCCC3)ccc2N1C(C)=O (stereo not shown),17.4
22,COc1ccc(N(Cc2cc3ccccc3[nH]c2=O)S(=O)(=O)c2ccc(C)cc2)cc1,3.72
23,CN(CC(=O)Nc1ccc(F)cc1)C(=O)CNC(=O)C1CCCCC1,-2.07
24,Cc1nc2ccc(NC(=O)c3ccc(Cl)c(S(=O)(=O)N(C)c4ccccc4)c3)cc2s1,10.3
25,COCC(C)n1c(COc2ccccc2F)nnc1SCc1c(C)noc1C (stereo not shown),-1.85
